# Source: PubChem BioAssay AID624296 (National Center for Advancing Translational Sciences (NCATS), 2012)
# The campaign covered roughly 350,000 compounds. About 9,900 (2.8%) were called active. This list was built around the results that the source calls inconclusive (neither active nor inactive); the mix of calls is not that of the screen. The call rests on the fitted dose curve; in most records, active means well fitted activation curve with a large enough effect; inconclusive means small, poorly fitted or top-dose-only effect; inactive means no such curve, though single readings can be large or run the other way. Potencies of inconclusive entries are left out as doubtful fits.
# Assay: A quantitative high throughput screen for small molecules that induce DNA re-replication in MCF 10a normal breast cells. Further: nearly all actives have a fitted effect of over 50% in size. On activity, positive = re-replication: % of control where 0% means no effect.
# Settings: MCF 10A DNA re-replication, Hoechst nuclear intensity, 48 h; activity, positive = re-replication: at 46.1 µM (top of the series)
# Potency means the concentration at half of the fitted maximal effect; tags describe the fitted curve by direction and shape.
SMILES,"activity, positive = re-replication",Potency
NS(=O)(=O)c1ccc(Nc2ccc3nonc3c2[N+](=O)[O-])cc1,inactive: -5.93%,–
CCc1cc(-c2n[nH]c(C)c2Oc2ccc(C(C)C)cc2)c(O)cc1O,–,"inconclusive [activator, partial curve, poor fit]"
O=C(NCCNc1ccc([N+](=O)[O-])cc1)c1cccc(Br)c1,inactive: 13.9%,–
CC(C)Cc1ccc(CN2CCCC(NC(=O)c3cnc4ccccn4c3=O)C2)cc1 (centres undefined),–,"inconclusive [activator, single point]"
CCOc1ccc(OCCSc2nc(C)cc(=O)[nH]2)cc1,–,"inconclusive [activator, full curve]"
O=C(O)c1cc(N/N=C/C(Cl)=C/c2ccccc2)ccc1Cl,–,"inconclusive [activator, single point]"
Cc1ccccc1/C=N/Nc1ccc(Cl)nn1,–,"inconclusive [activator, single point]"
CCOC(=O)C1=Nc2ccccc2C1=[N+]=[N-],–,active: 2.59 µM
CCn1cc([N+](=O)[O-])c(C(=O)Nc2nc(-c3ccc(C)c(C)c3)c(C)s2)n1,–,active: 8.2 µM
CCN1C(=O)[C@@H]2[C@@H](c3ccc(-c4ccc(OC)cc4)cc3)N3CCC[C@@]3(C(=O)OC)[C@@H]2C1=O,–,"inconclusive [activator, partial curve, poor fit]"
CCCCCCC(O)(CCN1CCCCC1)c1ccccc1 (centres undefined),–,"inconclusive [activator, single point]"
CCN(CC)C(=O)CSc1nc2ccc(NC(=O)CSc3nccn3C)cc2s1,inactive: -1.87%,–
COC(=O)c1sc2ncn(CC(=O)NCCc3ccc(OC)c(OC)c3)c(=O)c2c1C,–,"inconclusive [activator, single point]"
Cc1ccc2cn[nH]c2c1[N+](=O)[O-],inactive: -0.611%,–
COc1ccc(CN(C(=O)c2oc3ccccc3c2C)C2CCS(=O)(=O)C2)cc1 (centres undefined),–,"inconclusive [activator, partial curve, poor fit]"
Cn1c(=O)c2c(nc(Br)n2Cc2ccccc2Cl)n(C)c1=O,inactive: -0.0652%,–
O=C(CSCCO)Nc1ccc(C2CCCCC2)cc1,inactive: 19.5%,–
Cc1ccc(N(C(C)C(=O)Nc2ccc3c(c2)OCO3)S(C)(=O)=O)cc1 (centres undefined),–,"inconclusive [activator, single point]"
COc1ccc(O)c(C(=O)c2cnn(S(=O)(=O)c3ccc(C)cc3)c2)c1,–,"inconclusive [activator, single point]"
CC(C)c1ccc(NC(=O)C(=O)c2cn(CC(=O)N3CCCCC3)c3ccccc23)cc1,–,"inconclusive [activator, full curve, poor fit]"
COC(=O)c1ccc(CNC(=O)c2c3c(nc4ccccc24)CCN(Cc2ccccc2)C3)cc1,–,"inconclusive [activator, partial curve, poor fit]"
COc1ccccc1N(C)S(=O)(=O)c1ccc(C(=O)Nc2ccc3nc(C)sc3c2)cc1,–,"inconclusive [activator, single point]"

SMILES,"activity, positive = re-replication",Potency
Cc1nn(C)c(C(=O)N2CCc3ccccc32)c1Br,–,"inconclusive [activator, single point]"
COc1ccc(/C=N/Nc2ncnc3c2[nH]c2ccc(C)cc23)c(OC)c1OC,–,"inconclusive [activator, full curve, poor fit]"
CC1(C)CC(=O)C=C(CN2C(=O)c3ccccc3C2=O)C1=O,inactive: -1.42%,–
CCOC(=O)C(=CNc1nc(-c2ccccc2)c(C(=O)Nc2ccc(-c3ccccc3)cc2)s1)C(=O)OCC,–,active: 9.2 µM
CC(C)CC(=O)Nc1ccc(C(=O)COC(=O)CN2C(=O)NC3(CCCCC3C)C2=O)cc1 (centres undefined),inactive: 4.97%,–
CCOC(=O)c1c(C)oc2ccc(OCC(=O)C(C)(C)C)cc12,inactive: -0.727%,–
C=CCOCC(O)CS(=O)(=O)Cc1ccc(Cl)cc1 (centres undefined),inactive: 12.2%,–
CCOc1ccc(S(=O)(=O)N2CCCC(C(=O)NCc3cccnc3)C2)cc1C (centres undefined),–,"inconclusive [activator, single point]"
Cn1c(CNC(=O)c2ccccc2)nnc1SCC(=O)Nc1nccs1,–,"inconclusive [activator, single point]"
C=CCNS(=O)(=O)CC12CCC(CC1=O)C2(C)C (centres undefined),–,"inconclusive [activator, single point]"
Nc1nnc(-c2cc3ccccc3oc2=O)s1,inactive: 0.827%,–
Cc1cc(-c2nnc(CCC(=O)NCc3cc(F)cc(C(F)(F)F)c3)o2)no1,inactive: 4.53%,–
COc1ccc(NC(=O)CSc2ncnc3c2sc2ccccc23)c(OC)c1,–,"inconclusive [activator, single point]"
CS(=O)(=O)c1ccc(Cl)c(NC(=O)CCl)c1,–,"inconclusive [activator, single point]"
CC(C)N(CC(=O)Nc1ccc(Cl)cc1C(F)(F)F)C(=O)CCl,–,"inconclusive [activator, single point]"
COc1ccc(/C=C2/C(=O)N(CC3CCCO3)C(=S)N2C)c(OC)c1 (centres undefined),–,"inconclusive [activator, single point]"
COc1ccc2cc(C(=O)C3CCCN(Cc4cccc(C)n4)C3)ccc2c1 (centres undefined),–,"inconclusive [activator, single point]"
Cc1ccc2[nH]c3c(c2c1)CCc1cn[nH]c1-3,–,"inconclusive [activator, single point]"
COc1cc(NS(=O)(=O)c2ccc(NC(=S)NC(=O)/C=C/c3ccc(F)cc3)cc2)ncn1,–,"inconclusive [activator, partial curve, poor fit]"
NC(=O)c1ccnc2c(O)cccc12,inactive: 4.12%,–
Cc1cc2cc(CNC(=O)c3cccc([N+](=O)[O-])c3)ccc2[nH]1,–,"inconclusive [activator, partial curve, poor fit]"
CC1CC2(CCCCC2)Nc2c1ccc1ccccc21 (centres undefined),–,"inconclusive [activator, partial curve, poor fit]"
